This is an account of results in article PMC4802085.

Protein sequences, listed by entry. Tags and fused reporters are not part of them. Lines headed by an entry give the natural chain unless they say otherwise; changes in a name come on top. Chains listed by the source or under a name are the forms on record and can include a tag or linker. Residues count along the entry.
FLAG-PGRMC1 wild-type (a.a.44–195) (O00264, residues 44-195): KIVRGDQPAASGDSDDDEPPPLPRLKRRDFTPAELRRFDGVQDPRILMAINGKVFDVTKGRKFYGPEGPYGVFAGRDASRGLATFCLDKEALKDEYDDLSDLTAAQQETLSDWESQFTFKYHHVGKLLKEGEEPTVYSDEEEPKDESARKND
FLAG-PGRMC1 Y113F mutant (a.a.44–195) (O00264, form named): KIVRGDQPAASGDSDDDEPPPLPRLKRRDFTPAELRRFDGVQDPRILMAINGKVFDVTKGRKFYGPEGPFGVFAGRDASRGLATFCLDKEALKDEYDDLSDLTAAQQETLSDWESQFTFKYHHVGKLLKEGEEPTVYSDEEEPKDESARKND

Results are given in words; binding and its absence hold for the method and conditions named. In cells and extracts the contact can be indirect. Some results given as binding are weak or reduced against the parent protein; the word gives no strength.

The target of experiment [1] is FLAG-PGRMC1 wild-type (a.a.44–195) (human) (UniProt O00264). Nature of the experiment: co-IP; in vitro binding assay as a18 with FLAG-PGRMC1 in apo form (no haemin); only the target purified.
The target is the same in experiment [2]. In words: condition: only with 10 μmol l^−1 CORM3 under reducing conditions; co-IP; in vitro binding assay as a18, haem-bound FLAG-PGRMC1, reducing conditions (5 mmol l^−1 sodium dithionite), with 10 μmol l^−1 CORM3; only the target purified.
Experiment [3] has as its target FLAG-PGRMC1 Y113F mutant (a.a.44–195) (human) (UniProt O00264). In words: co-IP; in vitro binding assay: 1 μg CYP1A2 or CYP3A4 (microsomal formulation containing cytochrome b5 and cytochrome P450 reductase) with 10 μg FLAG-PGRMC1 (a.a.44–195) treated with 50 μmol l^−1 haemin, anti-FLAG (M2) agarose; 20 mmol l^−1 HEPES-NaOH (pH 7.9), 100 mmol l^−1 NaCl, 0.2 mmol l^−1 EDTA, 10% glycerol, 0.1% NP40, room temperature; only the target purified.

Experiment [4] concerns the target FLAG-PGRMC1 wild-type (a.a.44–195) (human) (UniProt O00264). Described as above.

B1: Recombinant CYP1A2 (enzyme, UniProt P05177 1-516)
chain: MALSQSVPFSATELLLASAIFCLVFWVLKGLRPRVPKGLKSPPEPWGWPLLGHVLTLGKNPHLALSRMSQRYGDVLQIRIGSTPVLVLSRLDTIRQALVRQGDDFKGRPDLYTSTLITDGQSLTFSTDSGPVWAARRRLAQNALNTFSIASDPASSSSCYLEEHVSKEAKALISRLQELMAGPGHFDPYNQVVVSVANVIGAMCFGQHFPESSDEMLSLVKNTHEFVETASSGNPLDFFPILRYLPNPALQRFKAFNQRFLWFLQKTVQEHYQDFDKNSVRDITGALFKHSKKGPRASGNLIPQEKIVNLVNDIFGAGFDTVTTAISWSLMYLVTKPEIQRKIQKELDTVIGRERRPRLSDRPQLPYLEAFILETFRHSSFLPFTIPHSTTRDTTLNGFYIPKKCCVFVNQWQVNHDPELWEDPSEFRPERFLTADGTAINKPLSEKMMLFGMGKRRCIGEVLAKWEIFLFLAILLQQLEFSVPPGVKVDLTPIYGLTMKHARCEHVQARLRFSIN
B1: the binding entry is “no binding (condition: without haem (apo form))” in experiment [1], “no binding” in experiment [2], “no binding” in experiment [3] and “binds” in experiment [4].
